Reference: the RNAGym collection of RNA variant scans (doi:10.1073/pnas.2313332121)
Variants at the floor of the assay are shown more often than the library holds them.

B1: TPR 5TU (parent)
chain: GGAUCUUCUCGAUCUAACAAAAAAGACAAAUCUGCCACAAAGCUUGAGAGCAUCUUCGGAUGCAGAGGCGGCAGCCUUCGGUGGCGCGAUAGCGCCAACGUUCUCAACUAUGACACGCAAAACGCGUGCUCCGUUGAAUGGAGUUUAUCAUG

Variants of: B1
Assay: polymerase ribozyme fitness, log enrichment relative to wild type (log ratio); higher = more active; in vitro selection for triplet polymerase activity
In short: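 Only genotypes with ≥10 input reads and ≥1 read per output were kept after Illumina sequencing of input and output libraries. These libraries were PCR-built, transcribed mutants of each subunit of a heterodimeric triplet polymerase ribozyme, each put through one triplicate in vitro selection round with frozen incubation at −7 °C, gel excision of extended constructs, streptavidin-bead capture and RT-PCR. Fitness is a logarithmic ratio of genotype enrichment to wild-type enrichment, from inverse-variance-weighted replicate averages, with the logarithm in base 2.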

| Variant | polymerase ribozyme fitness (log ratio) |
| --- | --- |
| GGAUCUUCUCGAUCGAACAAAAAAGCCCAAUCUGCCACAAAGUUUGAGAGCAUCUUCGAAUGCAGAGGCGGCAGCCUUCGGUGGCGGGAUAGCGCCAACGUUCUCAACUAUGACACGCAAAACGCGUGCUCCGUUGAAUGGAGUUUAUCAUG | ≤ -4.2 |
| GGAUCUUCUCGAUCGAACAAAAUAGACAAAUCUGCCACAAAGCUUGAUAGCAUCUUCGGAUGCAGAGGCGGCAGCCUUCGGUGUCGCGAUAGCGUCAACGUUCUCAACUAUGACACGCAAAACGCGUGCUCCGUUGAAUGGAGUUUAUCAUG | ≤ -4.2 |
| GGAUCUUCUCGAUCGAAUAAAAAAGACAAAUCUGCCACAAAGCUUGAGACCAUCUUCGGAUGCAGAGGCGGCAGCCUUCGGGGGCGAGAUAGCGCCAACGUUCUCAACUAUGACACGCAAAACGCGUGCUCCGUUGAAUGGAGUUUAUCAUG | ≤ -4.2 |
| GGAUCUUCUCGAUCGAACAAAAAAGAGAAAUCUGCCACAAAGCUUGAGAGCAUCUUCGGAUGCAGAGGCGGCAGCCUUCGGUGGCGCAAUAGCGCCAACUUUCUCAACCAUGACACGCAAAACGCGUGCUCCGUUGAAUGCAGUUUAUCAUG | ≤ -4.2 |
| GGAUCUUCUCGAUCGAACAAAAAAGACAAAUCUGUCACAACGCUUGAGAGCAUCUUCGGAUGCAGAGGCGGCAGCCUUCGGUGGCGCGAUAGCGCCAACGUUCUCAACUAUGACGCGCAAAACGCGUGCUCCGUUGAAUGGAGUGUAUCAUG | -4.04 |
| GGAUCUUCUCGAUCGAAGAAAAAAGACAAAUCUGCCACAUAGCUUGAGAGCAUCUUCGGAUGCAGAGGCGGCAGCGUUCGGUGGCGCGAUAGCGCCAACGUUCUCAACUAUGACACGGAAAACGCGUGCUCCGUUGAACGGAGUUUAUCAUG | ≤ -4.2 |
| GGAUCUUCUCGAUCGAACAAAAAAGACAAAUCUGCCACAAAGCUUGAGCGCAUCUUCGGAUGCAGGGGCGGCAGCCUUCGGUGGAGCGAUAGCGCCAACGUUUUCAACUAUGACACGCAAAACGCGUGCUCCGUUGAAUUGAGUUUAUCAUG | ≤ -4.2 |
| GGAUCUUCUCGAUCGAACAAAAAAGACAUAUCUGCCACAAAGCUUGAGAGCAUCUUCGGAUGCAGAGGCGGCAGCCUUCGGUGGCGCGAUAGCGACAACGUUCUCAACUAUGACACGCAAAACGCGUGCUCCGUUGAAUGGAGUUUGUCAUG | ≤ -4.2 |
| GGAUCUUCUCGAUCGAACAAAAAAGACAAAUCUGCCAUAAAGCUUGAGAGCAUCUUCGGAUGCAGAGGCGGCAGCCUUCGGUGGCGUGAUAGCGCCAACGUUCACAACUAUGACACGCAAAACGCGUGCUCCGUUGAAUGGAGUUUAUCAUG | -1.04 |
| GGAUCUUCUCGAUCGAACAUAAAAGACAAAGCUGCCACAAAGCUUGAGCGCCUCUUCGGAUGCAGAGGCGGCAGGCAUCGGUGGCGCGAUAGCGCCAGCGUUCUCAACUAUGACACGCAAAACGCGUGCACCGUUGAAUGGAGUUUAUCAUG | ≤ -4.2 |
| GGAUCUUCUCGAUCGAACAAAAAAGACAUAUCUGCCACAAAGCUUGAGAGCAUCUUCGGAUGCAGAGGCGGCAGGCUUCGGUGGCGGUAUAGCGCCAACGUUCUGAACUAUAACACGCAAAACGCGUGCUCCGUUGAAUGGAGGUUAUCAUG | ≤ -4.2 |
| GGAUCUUCUCGAUCGAACAAAUAAGACAAAUCUGCCACAAUGCUUGAGAGCAUCUUCGGAUGCAGAGGCGGCAGCCUUCGGUGUCGCCAUAGCGCGAACGUUCUCAACUAUGAUACGCAAAAUGCGUGCUCCGUUGAAUGGAGUUUAUCAUG | ≤ -4.2 |
| GGAUCUUCUCGAUCGAACAAAAAAGACAAAUCUGCCCGAAAGCUUGAGCGCAUCUUCGCAUGCAGAGGCGGCAGCCUUCGGUGGGGCGAUAGCACCAACGUUCUCAAUUAUGACACGCAAAACGCGUGCUCCGUUGACUGGAGUUUAUCAUG | ≤ -4.2 |
| GGAUCUUCUCGAUCGAACAACAAAGACAAAUCUGCCACAAAGCUUGAGAGCAUCUUCGGAUGCAGAGGCGGCAGCCUUCGGUUGCGCGGUAGCGCGAACGUUCUCAACUAUGACACGCAAAACGCGAGCUCCGUUGAAUGGAGUUUAUCAUG | -4.13 |
| GGAUCUUCUCGAUCGAAAAAAAAAGACAAAUCUGCCACAAAGCUUGAGAGCAUCUUCGGAUGCAGAGGCGGCAGCCUUCCGUGGCGCGAUAGCGCCAACGUUCUCAACUAUGACAUGCAAAACGCGUGCUCCGUUGAAUGGAGCUUAUCAUG | ≤ -4.2 |
| GGAUCUUCUCGAUCGAACAAAAAAGACAAAUCUGCCACAAAGCUUGAGAGCAUCUUCGGAUGCAGAGGCGGCCGCCUUCGGUGGCGCGAUAUCGCCAACGUUCUCAACUAUGACACGCAAAACGUGUGCUCCGUUGAAUGGAGUUUAUCAUG | ≤ -4.2 |
| GGAUCUUCUCGAUCGAACAAAAAAGACAAAUCUGCCAAAAAGCUUGAGAGCAUCUUCGGAUGCAGAGGCGGCAGCCUUCGGUGGCGCGAUAGCUCCAACGUUCUCAGCUUCGACACGCAAAACGCGUGCUCCGUUGAAUGGAGUUUAUCAUG | ≤ -4.2 |
| GGAUCUUCUCGAUCGAACAAAAACGACAAAUCUGCCACAAAGCUUGAGAGCAUCUUCGCAUGCAGAGCCGGCAGCCUUGGUUGGCGCGAUAGCGACAACGUUCUCAACUAUGACACGCAAAACGCGUGCUCUGUUGAAUGGAGUUUAUCAUG | ≤ -4.2 |
| GGAUCUUCUCGAUCGAACAAAACAUACAAAUCUGCCACCAAGCUAGAGAGCAUCUUUGGAUGCAGAGGCGGCAGCCUUCGGUGGCGCGAUAUCGCCAACGUUCUCAACUAUGACCCGCAAAACGCGUGCUCCGUUGAAUGUAGUUUAUCAUG | ≤ -4.2 |
